Laboratory results taken from PubChem BioAssay AID360 (National Center for Advancing Translational Sciences (NCATS), 2006).
Hit rate of the full screen: of about 48,000 compounds, about 550 (1.1%) were called active. About 4% were inconclusive and are not listed. Cut-off read from the data, not from the text of the source: active = potency below about 15 µM; inconclusive = mostly about 16 µM to 33 µM; inactive = weaker than that. The list shows a part of the results.

Biological target: Lysosomal acid glucosylceramidase (Homo sapiens) (UniProt P04062)
Experiment: Glucocerebrosidase;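 note: the screen sought inhibitors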
Conditions: purified enzyme, resorufin glucoside fluorescence (screen aimed at inhibitors), 20 min
Summary of the method: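 Wild-type enzyme at 0.2 nM final in 50mM citric acid/KH2PO4, 10mM sodium taurocholate, 0.01% tween-20, pH 5.9, with resorufin beta-D-glucopyranoside at 30 uM final. Compounds titrated, 20 min at RT, red fluorescence read; AC50 from titration.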
Potency is the fitted concentration of half-maximal effect.

UniProt P04062, sequence (P04062 whole entry, looked up): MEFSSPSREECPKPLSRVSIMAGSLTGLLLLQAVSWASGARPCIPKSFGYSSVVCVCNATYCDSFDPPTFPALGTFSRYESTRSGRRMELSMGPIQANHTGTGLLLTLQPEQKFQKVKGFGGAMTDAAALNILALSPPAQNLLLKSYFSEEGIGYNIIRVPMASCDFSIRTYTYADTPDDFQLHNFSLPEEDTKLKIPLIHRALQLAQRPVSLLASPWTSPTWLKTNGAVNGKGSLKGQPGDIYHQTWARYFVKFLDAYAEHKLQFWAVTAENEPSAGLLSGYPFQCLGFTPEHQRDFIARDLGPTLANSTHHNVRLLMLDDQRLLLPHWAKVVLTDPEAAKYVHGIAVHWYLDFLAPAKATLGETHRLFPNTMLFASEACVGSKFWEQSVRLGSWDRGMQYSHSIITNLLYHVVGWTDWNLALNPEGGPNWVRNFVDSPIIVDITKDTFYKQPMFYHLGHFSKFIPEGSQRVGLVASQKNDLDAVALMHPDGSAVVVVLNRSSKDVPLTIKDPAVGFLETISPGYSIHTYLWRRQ

SMILES	Potency
COc1cc(CC(=O)Nc2sccc2C(N)=O)cc(OC)c1OC	inactive: > 76.9 µM
COCCNC(=O)CSc1nc2cc(OC)c(OC)cc2c(=O)n1Cc1ccco1	inactive: > 76.9 µM
CCc1cccc(NC(=O)CCS(=O)(=O)c2cccc3nonc23)c1	inactive: > 76.9 µM
Cc1ccnc2c1NC(=O)c1cccnc1N2C1CC1	inactive: > 76.9 µM
COC(=O)c1ccc(CSc2nc(C)nc3sc(C)c(C)c23)o1	inactive: > 76.9 µM
CCOC(=O)c1c(C)oc2c1c(C=NCC1CCCO1)c(O)c1ccccc12 (configuration not stated)	inactive: > 76.9 µM
COCCn1c(SCC(=O)NCc2cccs2)nnc1-c1ccc(OC)cc1	inactive: > 76.9 µM
CC1CC(C)CN(C(=O)COc2ccc(-c3nnco3)cc2)C1 (configuration not stated)	inactive: > 76.9 µM
COc1cccc(C(=O)N(c2ccc(OC)cc2OC)C2C=CS(=O)(=O)C2)c1 (configuration not stated)	inactive
COc1ccc(N2CCN(c3nc(=S)n(-c4ccccc4)c(C)c3C(C)=O)CC2)cc1	inactive: > 76.9 µM
CCOc1ncccc1C(=O)OCC(=O)c1cc(C)n(Cc2ccco2)c1C	inactive: > 76.9 µM
CCOc1ccc(C2C(C(=O)c3ccco3)=C(O)C(=O)N2CCCn2ccnc2)cc1 (configuration not stated)	inactive: > 76.9 µM
COCCn1c(COC)nc2ccccc21	inactive: > 76.9 µM
O=C(CSc1nnc(COc2ccccc2)n1Cc1ccco1)c1ccc(F)cc1	inactive: > 76.9 µM
CCOc1cc(S(=O)(=O)n2nc(C)cc2C)ccc1F	inactive: > 76.9 µM
CC(C)CCNC(=O)CCS(=O)(=O)c1cccc2nonc12	inactive: > 76.9 µM
CC(C)(C)c1nc(NCC2CCCO2)c2nnn(Cc3ccccc3)c2n1 (configuration not stated)	inactive: > 76.9 µM
CCOC(=O)c1ccc(Nc2ccc(-c3ccc(OC)c(OC)c3)nn2)cc1	inactive: > 76.9 µM
Cc1cc(NCCOCCO)n2ncc(-c3ccc(Cl)cc3)c2n1	inactive: > 76.9 µM
CS(=O)(=O)N1CCN(C(=O)c2ccccc2)C1	inactive: > 76.9 µM
COCCOC(=O)C1=C(C)N=C2SCCC(=O)N2C1/C=C/c1ccccc1 (configuration not stated)	inactive: > 76.9 µM
CC(Sc1cccc(C(F)(F)F)c1)C(=O)NC(N)=O (configuration not stated)	inactive: > 76.9 µM
COc1ccc(S(=O)(=O)N2CCN(c3ncnc4c(-c5ccccc5)nsc34)CC2)cc1	inactive: > 76.9 µM

SMILES	Potency
O=c1[nH]cnc2cc(Cl)ccc12	inactive: > 76.9 µM
Cc1cc(-c2nnco2)c(C)n1-c1ccccc1	inactive: > 76.9 µM
CCCCNC(=O)C1CC(=O)N(CCC(C)C)C1 (configuration not stated)	inactive: > 76.9 µM
COc1ccccc1OCc1ccc(C(=O)N2CCN3CCCC3C2)cc1 (configuration not stated)	inactive: > 76.9 µM
CCN(CC)CCCOc1nc(C)nc2c1oc1ccccc12	inactive: > 76.9 µM
COc1cc(C(=O)N2CCC(NC(=O)C(Cc3ccccc3C)NC(C)=O)CC2)cc(OC)c1OC (configuration not stated)	inactive: > 76.9 µM
O=C(OCCN1CCOCC1)c1cccnc1	inactive: > 76.9 µM
CCn1cnc2cc(NCc3cccc(OC)c3O)ccc21	active: 13.9 µM
O=C(NC1CCCCC1)c1ccc(S(=O)(=O)NCc2cccnc2)cc1	inactive: > 76.9 µM
CCC1Oc2ccc(C)cc2N(CC(=O)NCCCN2CCN(Cc3ccccc3)CC2)C1=O (configuration not stated)	inactive: > 76.9 µM
CCOC(=O)c1[nH]c(C)c(/C(O)=C2\C(=O)C(=O)N(CCCn3ccnc3)C2c2ccncc2)c1C (configuration not stated)	inactive: > 76.9 µM
CC(C)CNC(=O)CSc1nnc(CN2CCCCCC2=O)n1-c1ccccn1	inactive: > 76.9 µM
COc1ccc(-c2noc(CCCC(=O)O)n2)cc1	inactive: > 76.9 µM
COc1ccc(S(=O)(=O)Nc2cccc(C)n2)c2ccccc12	inactive: > 76.9 µM
O=C(Nc1cccs1)NC1CCCC1	inactive: > 76.9 µM
Cc1c(C(=O)NCC2CCCO2)oc2ccc(S(=O)(=O)N3CCCC3)cc12 (configuration not stated)	inactive: > 76.9 µM
CCc1noc(C)c1C(=O)N1CCOCC1	inactive: > 76.9 µM
CCOC(=O)c1cccc(NC(=O)CSc2nnc(-c3ccoc3C)n2CC)c1	inactive: > 76.9 µM
CCOC(=O)N1CCC(NC(=O)CSCc2cnn(-c3ccccc3)c2-n2cccc2)CC1	inactive: > 76.9 µM
COc1ccc(C2CC(C(F)(F)F)n3nc(C(=O)NCc4cn(C)nc4C)c(Cl)c3N2)cc1 (configuration not stated)	inactive: > 76.9 µM
COC(=O)c1ccccc1NC(=O)c1ccc2c(c1)OCCO2	inactive: > 76.9 µM
COC(=O)c1cc(OC)c(OC)cc1NC(=O)c1cccnc1	inactive: > 76.9 µM
C=CCN(CC=C)c1nc2ccccc2nc1C(C#N)C(=O)OCCOC (configuration not stated)	inactive: > 76.9 µM

SMILES	Potency
O=C(Cn1c(CC(=O)N2CCCC2)nc2ccccc21)NCc1ccccc1	inactive: > 76.9 µM
O=C(Oc1cccc(Br)c1)c1cccnc1	inactive: > 76.9 µM
CCC(COC(=O)Nc1cccc(C)c1C)NC(=O)OCC(C)C (configuration not stated)	inactive: > 76.9 µM
Cc1nn2c(-c3ccncc3)nnc2c2ccccc12	inactive: > 76.9 µM
COc1cccc(-c2noc(N)c2C#N)c1	inactive: > 76.9 µM
COC(=O)c1ccc(CSc2nc(-c3ccccc3)cs2)o1	inactive: > 76.9 µM
CCOC(=O)C1=C(C)Nc2nnnn2C1c1c[nH]c2ccccc12 (configuration not stated)	inactive: > 76.9 µM
Cc1cc(C)c(O)c(-c2cc(C(=O)Nc3ccc(S(=O)(=O)N4CCOCC4)cc3)[nH]n2)c1	inactive: > 76.9 µM
Cc1cc(C)nc(/N=C2/NC(=O)CS2)n1	inactive: > 76.9 µM
CC(C)(C)C(=O)Cn1c[n+](N)cn1	inactive: > 76.9 µM
Nc1nc(SCC(=O)NCc2ccco2)[nH]c(=O)c1-c1ccccc1	inactive: > 76.9 µM
CCCCn1c(SCC(=O)O)nc2ccccc21	inactive: > 76.9 µM
Cc1ccc2c(c1)N(CC(=O)NCCc1c[nH]c3ccccc13)C(=O)CO2	inactive: > 76.9 µM
CCOC(=O)NC(=O)CSc1nnnn1-c1ccc(C)cc1	inactive: > 76.9 µM
CCOC(=O)C1=C(CS(=O)(=O)c2ccccc2)NC(=O)NC1c1ccccc1 (configuration not stated)	inactive: > 76.9 µM
Fc1ccc(-c2nn3c(C4COc5ccccc5O4)nnc3s2)cc1 (configuration not stated)	inactive: > 76.9 µM
CC1(C)OC(=O)CC1C(=O)NCc1ccccc1 (configuration not stated)	inactive: > 76.9 µM
Cc1noc(C)c1S(=O)(=O)Nc1ccc(C(=O)O)cc1	inactive: > 76.9 µM
Cc1onc(-c2ccccc2Cl)c1C(=O)Nc1cc(=O)n(C)c(=O)n1C	inactive: > 76.9 µM
Cc1ccsc1/C=N/n1cnc2sc(C)c(C)c2c1=O	inactive: > 76.9 µM
O=C(CCn1c(=O)c2ccccc2n(Cc2cccnc2)c1=O)NCc1ccc2c(c1)OCO2	inactive: > 76.9 µM
O=c1c2ccc(-c3nnc4n3-c3ccccc3SC4)cc2nc2n1CCCCC2	inactive: > 76.9 µM
CCOc1ccc2[nH]c(=O)c(CN(Cc3ccc(C)cc3)C(=O)N3CCCC3)cc2c1	inactive

SMILES	Potency
O=C1CN(C(=O)c2cnccn2)c2ccccc2N1	inactive: > 76.9 µM
O=C(CCc1nc2ccccc2[nH]1)Nc1ccc(F)cc1	inactive: > 76.9 µM
Cn1c(C(C#N)C(=O)c2sc3ccccc3c2Cl)nc2ccccc21 (configuration not stated)	inactive: > 76.9 µM
Cc1cccc2cc(C(c3nnnn3Cc3ccccc3)N3CCN(C)CC3)c(=O)[nH]c12 (configuration not stated)	inactive: > 76.9 µM
CCCc1c(O)nc(SCCN(CCC)CCC)[nH]c1=O	inactive: > 76.9 µM
O=C(O)CCC(=O)Nc1nc(-c2ccccc2)cs1	inactive: > 76.9 µM
COc1ccc(C(=O)N(Cc2ccco2)C(C(=O)NC2CCCC2)c2ccc(O)cc2)cc1OC (configuration not stated)	inactive: > 76.9 µM
Cc1ccc(Cl)cc1N1CCN(C(c2ccc(C#N)cc2)c2nnnn2C2CCCC2)CC1 (configuration not stated)	inactive: > 15.4 µM
Cc1cnc(NC(=O)CSc2nnc(-c3cccs3)n2C)s1	inactive: > 76.9 µM
Cc1ccc(Cl)cc1N1CCN(C(=O)C2CCN(S(=O)(=O)c3cccnc3)CC2)CC1	inactive: > 76.9 µM
CCCCCCn1c(CN2CCCCC2C)nc2c1c(=O)n(C)c(=O)n2C (configuration not stated)	inactive: > 76.9 µM
Cc1csc(NC(=O)CSc2nnc3ncccn23)n1	inactive: > 76.9 µM
COc1ccccc1S(=O)(=O)Cc1ccc(C(=O)NCCN2CCCC2)o1	inactive: > 76.9 µM
Cc1cc(C(=O)OCC(=O)N2CC(C)CC(C)C2)c(C)o1 (configuration not stated)	inactive: > 76.9 µM
COc1ccc(C(=O)NCC2OCCc3ccccc32)c(O)c1 (configuration not stated)	inactive: > 76.9 µM
CC(=O)N(C)c1ccc(OCC(O)COc2ccc(N(C)C(C)=O)cc2)cc1	inactive: > 76.9 µM
CC(NC(=O)C1C(=O)N(CCO)C2(C)CC1c1ccccc1O2)c1ccccc1 (configuration not stated)	inactive: > 76.9 µM
CCc1nnc(NC(=O)C2CCC2)s1	inactive: > 76.9 µM
CC(C)N1C(=O)C2C(C(=O)NCc3ccccc3)C3C=CC2(O3)C1C(=O)NC(C)(C)C (configuration not stated)	inactive: > 76.9 µM
CC1CCN(C(=O)c2ccc(COc3ccccc3Cl)o2)CC1	inactive: > 76.9 µM
COC(=O)CNc1nc(-c2ccncc2)nc2ccccc12	inactive: > 76.9 µM
Cc1cc(C(=O)COc2ncnc3sccc23)c(C)n1C1CC1	inactive: > 76.9 µM
COc1ccc(-c2noc(-c3ccccc3-c3ccccc3)n2)cc1OC	inactive: > 76.9 µM
